Laboratory results as given in PubChem BioAssay AID493208 (National Center for Advancing Translational Sciences (NCATS), 2011).
Hit rate of the full screen: of about 44,000 compounds, about 340 (0.77%) were called active. Roughly 5% stayed inconclusive and do not appear here. The call rests on the fitted dose curve; in most records, active means well fitted inhibition curve with a large enough effect; inconclusive means small, poorly fitted or top-dose-only effect; inactive means flat fitted curve, though single readings scatter. The list shows a part of the results.

Assay: Acumen qHTS Assay for Inhibitors of the mTORC1 Signaling Pathway in MEF (Tsc2-/-, p53-/-) Cells: Sytravon; further: nearly all actives have a fitted effect of over 50% in size;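 on activity change, negative = inhibition: plate controls were DMSO for no effect and rapamycin for full effect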
Conditions: phospho-rpS6 immunofluorescence/PI, 24 h; series mostly up to 38.3 µM; activity change, negative = inhibition: at the top concentration
Method in brief: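 Tsc2-/-, p53-/- MEFs (empty-vector stable line) in DMEM + 10% FBS were treated with compounds 24 h at 37 degree Celsius, fixed, and immunostained for phospho-rpS6 (Alexa-488) with propidium iodide counterstain. Laser-scanning cytometry gave % positive cells, normalized against 7.5 nM rapamycin and DMSO.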
Potency means the concentration at half of the fitted maximal effect.

Activity change, negative = inhibition, inactive:
COc1ccc(Cl)cc1-n1c(/C=C/c2cccc3ccccc23)nc2ccccc2c1=O 2.24%
COc1ccc(-c2nc(CSc3nncn4c3cc3occc34)c(C)o2)cc1 -8.77%
CCc1ccc(-c2[nH]c3c(c2-c2sc(C)c(C(=O)OC)c2O)c(=O)[nH]c(=O)n3C)cc1 0.84%
CCOc1ccc(CCNC(c2cccc(Cl)c2)c2nnc(-c3ccccc3)o2)cc1OCC (stereo not given) -18.6%
Cc1coc2c(C)c3oc(=O)c(CCC(=O)NCCc4ccccc4)c(C)c3cc12 2.04%
Cc1nn(C(=O)c2ccc(Br)cc2)c(C)c1S(=O)(=O)N1CCOCC1 -0.784%
COc1cccc(/C=C/c2nc(C#N)c(NCCc3ccc(OC)c(OC)c3)o2)c1 -0.97%
COC(=O)c1ccc2c(c1)N(Cc1ccc(F)cc1)C(=O)c1ccccc1S2 2.96%
Cn1c(NCCO)nc2c1c(=O)n(Cc1cccc(F)c1)c(=O)n2C 1.8%
CCOc1ccc(CCNC(=O)c2cnc3c(-c4ccc(F)cc4)c(C)nn3c2C)cc1OCC -5.54%
O=C(NCCc1ccc(Cl)cc1)c1cnc2sc(N3CCCCC3)nn2c1=O -0.973%
COc1ccc2c(c1)sc1ncc(C(=O)NCc3ccc(OC(C)C)cc3)c(=O)n12 -2.19%
COc1ccc(-c2cc(C(F)(F)F)nc(SCCC(=O)Nc3cc(C)ccc3O)n2)cc1 -14.6%
Oc1c(C(c2ccc(Cl)cc2)N2CCC3(CC2)OCCO3)sc2nc(-c3ccco3)nn12 (stereo not given) -0.117%
CCn1c(=O)c(C(=O)Nc2ccc(C(C)=O)cc2)nc2ccccc21 -1.48%
COc1cc(NC(=O)c2cccc3c2C(=O)N(C2CCCCC2)C3)cc(OC)c1 0.257%
O=C(Cn1c(=O)oc2ccccc21)Nc1ccc(C(=O)O)cc1 -0.152%
CCOc1ccccc1NC(=O)CSc1nc2cc(OC)c(OC)cc2c2nc(-c3ccccc3)nn12 -6.34%
Cc1ccc(C)c(CN2C(=O)c3ccccc3S(=O)(=O)c3ccc(C(=O)N4CCN(c5ccccc5)CC4)cc32)c1 0.0572%
C#CCSc1nc2sc3c(c2c(=O)n1Cc1ccccc1)CCCC3 -15.8%
COc1ccccc1OCCSc1nc2ccccc2n1CC(=O)N1CCOCC1 -3.67%
Cc1ccc(NC(=O)CCS(=O)(=O)c2cccc3nonc23)cc1Cl -16%
Cc1ccccc1Nc1c(-c2ccco2)nc2c(C)cccn12 3.81%
Cc1ccc(CS(=O)(=O)c2ncc(Cl)c(C(=O)Nc3nc4ccc(C)cc4s3)n2)cc1 -0.341%
Cc1cccc(NC(=O)Cn2c(=O)n(CCCS(=O)(=O)C3CCCCC3)c(=O)c3ccccc32)c1 -6.73%
CCCCN(CCCC)CCNC(=O)Cn1nc(CC)n2c(cc3sc(C)cc32)c1=O -0.318%
O=S1(=O)c2ccccc2N(Cc2cccc(C(F)(F)F)c2)c2ccccc21 0.522%
CCOC(=O)c1ccc(-n2c(C)nc3c(cnn3-c3ccc(Cl)cc3)c2=O)cc1 -0.773%
Cc1ccc(-c2onc(C)c2C)cc1S(=O)(=O)N1c2ccccc2CC1C (stereo not given) -2.45%
COc1ccc(CCNC(=O)c2c(O)nc3c(C)cccn3c2=O)cc1 0.829%
CCOCCc1nn2c(=O)cc(COC(=O)c3ccccc3NC(=O)C3CCCCC3)nc2s1 2.56%
O=C(NCCn1cc(SCc2ccc(Cl)cc2)c2ccccc21)c1cccs1 -4.24%
COc1cccc(-c2nc(SCC(=O)Nc3ccc4c(c3)OCCO4)c(-c3ccccc3)[nH]2)c1 -0.392%
COc1cc(OC)c(N(C)C(=O)CCNC(=O)Cn2cnc3ccccc3c2=O)cc1Cl -2.68%
CCOC(=O)c1[nH]c(C)c(CCC(=O)N2CCN(c3cccc(OC)c3)CC2)c1C 0.0901%
CCCCN(CC)C(=O)CSc1nc2n[nH]c(C)c2c(=N)n1-c1cccc(Cl)c1 -3.35%
Cc1ccc(-c2noc(-c3ccccc3NC(=O)c3ccccc3)n2)cc1 -16.5%
CCC(=O)N1CCc2cc(Br)cc(S(=O)(=O)CCC(=O)NCc3ccccc3OC)c21 -1.38%
CCOc1ccc(NC(=O)Cn2ncc3c2-c2cc(C)ccc2OC3)cc1 3.72%
Cc1ccc(NC(=O)Cc2ccc(-n3c(C)nc4cccnc43)cc2)c(Cl)c1 -10.6%
COc1ccccc1C(=O)NCCn1cc(SCC(=O)Nc2ccccc2F)c2ccccc21 0.232%
COc1ccc(CCNC(=O)C(=O)Nc2ccccc2F)cc1 -14.2%
Cc1ccc(CNC(=O)C(=O)Nc2c3c(nn2-c2ccccc2)CSC3)cc1 -0.774%
O=C(NCc1ccccc1)c1ccc(CNS(=O)(=O)c2ccc(Br)cc2)cc1 -3.88%
COc1ccccc1CNS(=O)(=O)c1ccc2c(c1)CC(C)N2C(C)=O (stereo not given) -11.9%
CC1CCN(S(=O)(=O)c2ccc3c(c2)N(CC(=O)NC(C)c2ccccc2)C(=O)CS3)CC1 (stereo not given) 0.96%
Cc1ccc(C)c(N2CCN(S(=O)(=O)c3ccc4[nH]c5c(c4c3)CCCCC5)CC2)c1 -1.7%
CC(C)Cn1cc(NC(=O)N2CCN(c3cccc(Cl)c3)CC2)c2ccccc2c1=O -1.92%
COc1cc(Cl)c(S(=O)(=O)NCCc2c(C)[nH]c3c(C)cccc23)cc1Cl -8.41%
CCc1ccc(NC(=O)N2CCOc3ccc(Cl)cc32)cc1 -19.8%
COC(=O)c1ccc(NC(=O)CC2C(=O)N(c3cccc(OC)c3)C(=O)N2Cc2cccs2)cc1 (stereo not given) -1.08%
Cc1ccc(-c2nc(NC(=O)CSc3cc(C)c4ccccc4n3)ns2)cc1 2.73%
Cc1cc(C)c(NC(=O)c2cc(S(=O)(=O)N3CCC4(CC3)OCCO4)ccc2F)c(C)c1 11.7%
CCN(CCCNC(=O)Cn1ncc2c3ccccc3n(C)c2c1=O)Cc1ccccc1 -1.07%
COC(=O)c1ccc(C2c3c(-c4ccccc4O)n[nH]c3C(=O)N2Cc2cccnc2)cc1 (stereo not given) -13.3%
O=C(Nc1cc(-c2nc3cc(Cl)ccc3o2)ccc1Cl)c1ccco1 -1.85%
COc1cccc(C2C(C(=O)Nc3ccc(C)cc3C)=C(C)Nc3c(C(=O)Nc4ccccc4)cnn32)c1 (stereo not given) 6.4%
O=C(Nc1nnc(S(=O)(=O)N2CCCc3ccccc32)s1)c1cccc(Cl)c1 9.54%
CCc1ccc(NC(=O)CSc2nc(=O)n(Cc3ccccn3)c3c2CCC3)cc1 3.22%
CCc1cccc(C)c1NS(=O)(=O)c1c(C(=O)N2CCC(C)CC2)c(C)n(C)c1C 0%
COc1ccc(S(=O)(=O)N2CCC(C(=O)Nc3ccc(Oc4ccccc4)cc3)CC2)cc1 -13.2%
COc1ccc(NC(=O)c2cc(S(=O)(=O)N3CCOCC3)ccc2OC)cc1 0.158%
COc1ccc(S(=O)(=O)Nc2cccc(-c3ccc(N4CCCC4)nn3)c2)c(OC)c1 4.65%
Cc1ccc(C)c(NC(=O)N2CCN(C(=O)c3nsc4ccccc34)CC2)c1 11.9%
COc1ccc(CNC(=O)c2cc3cc4cc(OC)ccc4nc3o2)cc1 0.905%
COc1cccc(CNC(=O)c2ccc3c(c2)c(C)c(C)n3Cc2ccccc2)c1 7.97%
Cc1nnc(N2CCC(C(=O)NC3CCCCC3)CC2)c2nn(-c3ccccc3)c(C)c12 -0.361%
NC(=O)C1CCN(C(=O)c2ccc(NC(=O)c3nsc4ccccc34)cc2)CC1 -10.4%
CCOc1ccccc1N(CC)C(=O)Cn1ncc2c([nH]c3ccccc32)c1=O 0.428%
Clc1cccc(-c2ccc(CNCCSc3nnnn3-c3ccccc3)o2)c1 -15.4%
O=C(c1ccccc1)N1CCN(CCc2ccncc2)CC1 -9%
CCOC(=O)c1c(C)[nH]c(C)c1S(=O)(=O)N1CCC(C(=O)Nc2cc(Cl)ccc2OC)CC1 3.39%
CC1=C(c2ccc(C)c(C)c2)S(=O)(=O)NC1=NCc1ccccc1Cl 2.77%
CCOc1ccc(CCNC(=O)c2cn(C)c3ccc(S(=O)(=O)N4CCCCC4)cc3c2=O)cc1OCC 7.67%
COc1ccccc1C(=O)Nc1cccc(C(=O)OCc2cc(=O)n3cc(C)sc3n2)c1 0%
CCc1nc2nc(C)c(NS(=O)(=O)c3ccc(C(C)(C)C)cc3)c(=O)n2[nH]1 -7.8%
O=C(CCn1cnc2ccccc2c1=O)NCc1ccccc1Cl -2.31%
O=C(CNC(=O)c1ccc(F)cc1)OCc1cc(=O)n2nc(C3CC3)sc2n1 -12.5%
CCOC(=O)c1sc2ncn(CC(=O)Nc3ccc(OCC)cc3)c(=O)c2c1C -3.38%
COc1ccc(-c2nc(C)c(CCNS(=O)(=O)c3cc(Cl)ccc3Cl)s2)cc1 -7.66%
Cc1c(C(=O)Nc2cccc(C(F)(F)F)c2)oc2ccc3c(c12)C(=O)CC(C)(C)O3 -17.6%
COC(=O)CN1C(=O)CSc2ccc(S(=O)(=O)Nc3cc(C)ccc3C)cc21 -6.11%
CCc1nn2c(=O)cc(COC(=O)COc3ccc(OC)cc3)nc2s1 8.03%
COc1cccc(-n2c(=O)c3sc4ccccc4c3n(CC(=O)NC3CCCCC3)c2=O)c1 -1.89%
Cc1c(NC(=O)c2ccc(-c3cccc([N+](=O)[O-])c3)o2)cccc1-c1nc2cc(Cl)ccc2o1 -16.3%
CCOC(=O)c1cc2c(=O)n3ccccc3nc2n(CCOC)c1=NC(=O)c1c(-c2ccccc2Cl)noc1C -2.01%
Cn1c(=O)oc2cc(S(=O)(=O)NCCC(=O)Nc3ccc(F)cc3F)ccc21 -1.74%
Cc1cc(OCC(=O)Nc2ncn[nH]2)ccc1Cl -0.694%
Cc1ccc(S(=O)(=O)N(CC(=O)Nc2ccc3c(c2)OCO3)c2cc(Cl)cc(Cl)c2)cc1 -5.98%
CCN(CC)S(=O)(=O)c1ccc(OC)c(-n2cnnn2)c1 -2.18%
O=C(NCCC1=CCCCC1)c1ccc2c(c1)N(Cc1cccc(Cl)c1)C(=O)c1ccccc1S2=O (stereo not given) -3.19%
CC(C)CCNC(=O)Cc1ccc(NC(=O)N2CCCCc3ccccc32)cc1 -13.5%
COc1ccc(CNC(=O)Cn2c(=O)nc(-c3ccccc3)c3ccccc32)cc1OC 1.53%

Potency, active:
COc1ccc(Cn2c(C(=O)O)c(CNCc3ccccc3F)c3ccc(OC)cc32)cc1 11.7 µM
COc1cc(Cl)c(C)cc1NC(=O)C1CCN(c2nc3ccccc3n3cccc23)CC1 14.7 µM
